Where “and” joins values, the source holds several entries; their conditions need not be identical. Identical values can stand only once. This is one part of the list. These are further read-outs of the screen, such as a control signal, another cell line or another target. No call is given for them. Most of these compounds were active or inconclusive in the main read-out, so they are no random draw. Words in brackets tell the shape of the fitted curve; partial curves, single points and poor fits give uncertain potencies.
Legend:
[1] = qHTS Assay for Lipid Storage Modulators (AID 1519); conditions: Drosophila S3 cells, BODIPY lipid droplet/cell ratio, laser cytometry, cells loaded with oleic acid
In short: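 Cells seeded at 5,000 per well were treated with compounds over a concentration series and loaded with oleic acid (400 uM, as added). Lipid droplet fluorescence (488 nm excitation, 500-530 nm channel) was read by laser-scanning cytometry and normalized to 20 uM Triacsin C.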

[2] = qHTS Assay for Modulators of Human Peripheral Myelin Protein 22 (PMP22) Expression/Activity (AID 1967); conditions: Cell-based PMP22 reporter, dual-color luciferase ratio
In short: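 Mouse MSC80 Schwann cells carrying Pmp22 promoter–green click beetle luciferase plus EF-alpha–red luciferase control, dosed 24 h at 37 °C. Dual-filter luminescence, overlap-corrected; %Activity from green/red ratio normalised to untreated cells, concentration-response curves fitted.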

[3] = qHTS for identification of novel therapeutic agents for treatment of microphthalmiaassociated transcription factor (MiT) renal cell carcinoma (RCC) (AID 1963991); conditions: CellTiter-Glo, 48 h; for z-score: stronger effect = lower value
In short: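 Three TFE3-fusion RCC cell lines (UOK109, UOK124, UOK145), 500 cells/well, were exposed to the 1912-compound MIPE 4.0 library for 48 hours at 37 C. Viability was read by CellTiter-Glo luminescence, normalised to DMSO (100%) and empty wells (0%), with 11-concentration curve fits.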

[4] = measured here: cell count channel max response
[5] = measured here: cell number channel AC50
[6] = measured here: lipid (BODIPY) channel AC50
[7] = measured here: lipid channel max response
[8] = measured here: red reporter channel AC50, EF-alpha promoter control reporter in MSC80 mouse Schwann cells
[9] = measured here: green reporter channel AC50, mouse Pmp22 promoter in mouse Schwann cells
Tags give direction and shape of the fitted curve.

Row | SMILES | max response [1, 4] | AC50 [1, 5] | AC50 [1, 6] | max response [1, 7] | AC50 [2, 8] | z-score ([3]; TFE3-RCC UOK109 viability, measured here: UOK109 Z-AUC) | z-score ([3]; TFE3-RCC viability, measured here: UOK124 Z-AUC) | z-score ([3]; TFE3-RCC viability, measured here: UOK145 Z-AUC) | AC50 ([3]; TFE3-RCC viability, measured here: UOK145 cell viability) | AC50 [2, 9]
1 | Nc1nnc(-c2cccc(Cl)c2Cl)c(N)n1 | 6.69% | 316 nM [falling, full curve, poor fit] | 355 nM [falling, full curve, poor fit] | 6.52% | 84.9 µM [falling, single point] | 0.372 | 0.77 | 0.29 | 33.2 µM [falling, single point] | –
2 | COc1ccc2c(c1)c(CC(=O)N1CCOCC1)c(C)n2C(=O)c1ccc(Cl)cc1 | 91.1% and -64.9% | 3.98 µM [rising, full curve] and 11.2 µM [falling, partial curve, poor fit] | 3.98 µM [rising, full curve] and 11.2 µM [falling, partial curve, poor fit] | 117% and -66.4% | 75.7 µM [falling, partial curve] | – | – | – | – | –
3 | COC(=O)C1=C(C)NC(C)=C([N+](=O)[O-])C1c1ccccc1C(F)(F)F (stereo not given) | 76.3% | 35500 nM [rising, partial curve, poor fit] | 35500 nM [rising, partial curve, poor fit] | 81.3% | 84.9 µM [falling, single point] | – | – | – | – | 75.7 µM [falling, partial curve]
4 | CCCN1C[C@H](CSC)C[C@@H]2c3cccc4[nH]cc(c34)C[C@H]21 | 67.9% and -13.7% | 7.94 µM [rising, partial curve, poor fit] and 2.82 µM [falling, full curve] | 8.91 µM [rising, full curve] and 2.82 µM [falling, full curve] | 73.2% and -11.5% | – | – | – | – | – | 84.9 µM [falling, single point]
